Measurements: the supplement of paper PMC8728848
This is one part of the list.

Legend:
Test in all cases: glycan array binding signal (z-score within array); higher = stronger binding
Settings in all cases: glycan notation: IUPAC condensed, linker removed
[1] = target: Gal(b1-3)[Fuc(a1-4)]GlcNAc(b1-2)Man(a1-3)[Gal(b1-3)[Fuc(a1-4)]GlcNAc(b1-2)Man(a1-6)]Man(b1-4)GlcNAc(b1-4)GlcNAc
Method in brief: (§1)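 Columns mapping to the same glycan were averaged after glycan names were converted to IUPAC-condensed notation. The data come from 3228 arrays in the Consortium for Functional Glycomics database, limited to those with an available protein sequence. Binding is reported as a within-array Z-score averaged across arrays of one protein sequence and across linkers.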

[2] = target: Gal(b1-3)[Fuc(a1-4)]GlcNAc(b1-2)Man(a1-3)[Gal(b1-3)[Fuc(a1-4)]GlcNAc(b1-2)Man(a1-6)]Man(b1-4)GlcNAc(b1-4)[Fuc(a1-6)]GlcNAc
Method in brief: as §1

[3] = target: Gal(b1-3)[Fuc(a1-4)]GlcNAc(b1-3)Gal(b1-3)[Fuc(a1-4)]GlcNAc
Method in brief: as §1

[4] = target: Gal(b1-3)[Fuc(a1-4)]GlcNAc(b1-3)Gal(b1-4)GlcNAc
Method in brief: as §1

[5] = target: Gal(b1-3)[Fuc(a1-4)]GlcNAc(b1-3)Gal(b1-4)[Fuc(a1-3)]GlcNAc
Method in brief: as §1

[6] = target: Gal(b1-3)[GlcNAc(b1-6)]GalNAc
Method in brief: as §1

[7] = target: Gal(b1-3)[Neu5Ac(a2-6)]GalNAc
Method in brief: as §1

[8] = target: Gal(b1-3)[Neu5Ac(a2-6)]GlcNAc(b1-6)Gal(b1-4)Glc
Method in brief: as §1

[9] = target: Gal(b1-3)[Neu5Ac(b2-6)]GalNAc
Method in brief: as §1

[10] = target: Gal(b1-4)GalNAc(a1-3)[Fuc(a1-2)]Gal(b1-4)GlcNAc
Method in brief: as §1

[11] = target: Gal(b1-4)GalNAc(b1-3)[Fuc(a1-2)]Gal(b1-4)GlcNAc
Method in brief: as §1

Gal(b1-4)Glc = target: Gal(b1-4)Glc
Method in brief: as §1

Gal(b1-4)Glc6S = target: Gal(b1-4)Glc6S
Method in brief: as §1

Gal(b1-4)GlcNAc = target: Gal(b1-4)GlcNAc
Method in brief: as §1

[12] = target: Gal(b1-4)GlcNAc(a1-6)Gal(b1-4)GlcNAc
Method in brief: as §1

[13] = target: Gal(b1-4)GlcNAc(b1-2)Man(a1-3)Man(b1-4)GlcNAc(b1-4)GlcNAc
Method in brief: as §1

[14] = target: Gal(b1-4)GlcNAc(b1-2)Man(a1-3)[Gal(b1-4)GlcNAc(b1-2)Man(a1-6)]Man(b1-4)GlcNAc(b1-4)GlcNAc
Method in brief: as §1

[15] = target: Gal(b1-4)GlcNAc(b1-2)Man(a1-3)[Gal(b1-4)GlcNAc(b1-2)Man(a1-6)]Man(b1-4)GlcNAc(b1-4)[Fuc(a1-6)]GlcNAc
Method in brief: as §1

[16] = target: Gal(b1-4)GlcNAc(b1-2)Man(a1-3)[Man(a1-6)]Man(b1-4)GlcNAc(b1-4)GlcNAc
Method in brief: as §1

[17] = target: Gal(b1-4)GlcNAc(b1-2)Man(a1-6)Man(b1-4)GlcNAc(b1-4)GlcNAc
Method in brief: as §1

[18] = target: Gal(b1-4)GlcNAc(b1-2)Man(a1-6)[Man(a1-3)]Man(b1-4)GlcNAc(b1-4)GlcNAc
Method in brief: as §1

[19] = target: Gal(b1-4)GlcNAc(b1-2)[Gal(b1-4)GlcNAc(b1-4)]Man(a1-3)[Gal(b1-4)GlcNAc(b1-2)Man(a1-6)]Man(b1-4)GlcNAc(b1-4)GlcNAc
Method in brief: as §1

[20] = target: Gal(b1-4)GlcNAc(b1-3)Gal(b1-3)GlcNAc
Method in brief: as §1

[21] = target: Gal(b1-4)GlcNAc(b1-3)Gal(b1-4)Glc
Method in brief: as §1

[22] = target: Gal(b1-4)GlcNAc(b1-3)Gal(b1-4)GlcNAc
Method in brief: as §1

[23] = target: Gal(b1-4)GlcNAc(b1-3)Gal(b1-4)GlcNAc(b1-3)Gal(b1-4)GlcNAc
Method in brief: as §1

[24] = target: Gal(b1-4)GlcNAc(b1-3)Gal(b1-4)[Fuc(a1-3)]GlcNAc(b1-3)Gal(b1-4)[Fuc(a1-3)]GlcNAc
Method in brief: as §1

[25] = target: Gal(b1-4)GlcNAc(b1-3)GalNAc
Method in brief: as §1

[26] = target: Gal(b1-4)GlcNAc(b1-3)[Gal(b1-4)GlcNAc(b1-6)]Gal(b1-4)GlcNAc
Method in brief: as §1

[27] = target: Gal(b1-4)GlcNAc(b1-3)[GlcNAc(b1-6)]Gal(b1-4)GlcNAc
Method in brief: as §1

B1: Neuropilin-2 (Homo sapiens), O60462 (protein)
chain: MDMFPLTWVFLALYFSRHQVRGQPDPPCGGRLNSKDAGYITSPGYPQDYPSHQNCEWIVYAPEPNQKIVLNFNPHFEIEKHDCKYDFIEIRDGDSESADLLGKHCGNIAPPTIISSGSMLYIKFTSDYARQGAGFSLRYEIFKTGSEDCSKNFTSPNGTIESPGFPEKYPHNLDCTFTILAKPKMEIILQFLIFDLEHDPLQVGEGDCKYDWLDIWDGIPHVGPLIGKYCGTKTPSELRSSTGILSLTFHTDMAVAKDGFSARYYLVHQEPLENFQCNVPLGMESGRIANEQISASSTYSDGRWTPQQSRLHGDDNGWTPNLDSNKEYLQVDLRFLTMLTAIATQGAISRETQNGYYVKSYKLEVSTNGEDWMVYRHGKNHKVFQANNDATEVVLNKLHAPLLTRFVRIRPQTWHSGIALRLELFGCRVTDAPCSNMLGMLSGLIADSQISASSTQEYLWSPSAARLVSSRSGWFPRIPQAQPGEEWLQVDLGTPKTVKGVIIQGARGGDSITAVEARAFVRKFKVSYSLNGKDWEYIQDPRTQQPKLFEGNMHYDTPDIRRFDPIPAQYVRVYPERWSPAGIGMRLEVLGCDWTDSKPTVETLGPTVKSEETTTPYPTEEEATECGENCSFEDDKDLQLPSGFNCNFDFLEEPCGWMYDHAKWLRTTWASSSSPNDRTFPDDRNFLRLQSDSQREGQYARLISPPVHLPRSPVCMEFQYQATGGRGVALQVVREASQESKLLWVIREDQGGEWKHGRIILPSYDMEYQIVFEGVIGKGRSGEIAIDDIRISTDVPLENCMEPISAFAGENFKVDIPEIHEREGYEDEIDDEYEVDWSNSSSATSGSGAPSTDKEKSWLYTLDPILITIIAMSSLGVLLGATCAGLLLYCTCSYSGLSSRSCTTLENYNFELYDGLKHKVKMNHQKCCSEA
Question: With B1 as the binder, how does the “glycan array binding signal (z-score)” value [1] read?
Answer: 5.64

Question: And the “glycan array binding signal (z-score)” value [2]?
Answer: 1.72

Question: And the “glycan array binding signal (z-score)” value [3]?
Answer: -0.27

Question: And the “glycan array binding signal (z-score)” value [4]?
Answer: -0.757

Question: And the “glycan array binding signal (z-score)” value [5]?
Answer: -0.191

Question: And the “glycan array binding signal (z-score)” value [6]?
Answer: -0.276

Question: What about the “glycan array binding signal (z-score)” value [7] of the same binder?
Answer: -0.62

Question: What about the “glycan array binding signal (z-score)” value [8] of the same binder?
Answer: -0.319

Question: What about the “glycan array binding signal (z-score)” value [9] of the same binder?
Answer: -0.168

Question: And the “glycan array binding signal (z-score)” value [10]?
Answer: -0.662

Question: What about the “glycan array binding signal (z-score)” value [11] of the same binder?
Answer: 0.436

Question: And the “glycan array binding signal (z-score)” value (Gal(b1-4)Glc)?
Answer: -0.299

Question: What about the “glycan array binding signal (z-score)” value (Gal(b1-4)Glc6S) of the same binder?
Answer: 0.052

Question: What about the “glycan array binding signal (z-score)” value (Gal(b1-4)GlcNAc) of the same binder?
Answer: -0.44

Question: What about the “glycan array binding signal (z-score)” value [12] of the same binder?
Answer: -0.491

Question: What about the “glycan array binding signal (z-score)” value [13] of the same binder?
Answer: -0.628

Question: What about the “glycan array binding signal (z-score)” value [14] of the same binder?
Answer: -0.476

Question: What about the “glycan array binding signal (z-score)” value [15] of the same binder?
Answer: -0.133

Question: And the “glycan array binding signal (z-score)” value [16]?
Answer: 0.279

Question: What about the “glycan array binding signal (z-score)” value [17] of the same binder?
Answer: -0.457

Question: And the “glycan array binding signal (z-score)” value [18]?
Answer: 0.295

Question: What about the “glycan array binding signal (z-score)” value [19] of the same binder?
Answer: -0.199

Question: What about the “glycan array binding signal (z-score)” value [20] of the same binder?
Answer: -0.249

Question: What about the “glycan array binding signal (z-score)” value [21] of the same binder?
Answer: -0.105

Question: And the “glycan array binding signal (z-score)” value [22]?
Answer: -0.377

Question: And the “glycan array binding signal (z-score)” value [23]?
Answer: -0.196

Question: And the “glycan array binding signal (z-score)” value [24]?
Answer: -0.328

Question: What about the “glycan array binding signal (z-score)” value [25] of the same binder?
Answer: -0.331

Question: What about the “glycan array binding signal (z-score)” value [26] of the same binder?
Answer: -0.256

Question: What about the “glycan array binding signal (z-score)” value [27] of the same binder?
Answer: -0.263
